Experimental data: PubChem BioAssay AID624417 (National Center for Advancing Translational Sciences (NCATS), 2012)
Screen size: about 410,000 compounds; about 6,400 (1.6%) were called active. The inconclusive results got no clear call from the source; some entries with a clear call stand among them for comparison. Calls follow the shape of the dose curve; as a rule, active = well fitted inhibition curve with a large enough effect; inconclusive = small, poorly fitted or top-dose-only effect; inactive = no such curve, though single readings can be large or run the other way. No potency is given beside an inconclusive call; the fits are too rough.

Molecular target: Glucagon-like peptide 1 receptor (Homo sapiens) (UniProt P43220)
Test: qHTS of GLP-1 Receptor Inverse Agonists (Inhibition Mode); also: nearly all actives have a fitted effect of over 55% in size
Settings: HEK293 GLP-1R CRE-luciferase, luminescence, 24 h, GLP-1R form is constitutively active; activity change, negative = inhibition: at 38.3 µM (top of the series) unless noted
In short: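 Inverse agonism was detected as reduced cAMP-driven luciferase luminescence after 24 h compound treatment. The cells were HEK293 clones expressing constitutively active human GLP-1R with the reporter. Reporter-only and GPR119 cell lines served as counterscreen controls.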
% is scaled to controls: 0 for no effect and ±100 for the full control effect; potency is read from the fitted curve at half-maximal effect; tags tell the direction and shape of the fitted curve.

Chain of UniProt P43220 (P43220 whole entry, looked up): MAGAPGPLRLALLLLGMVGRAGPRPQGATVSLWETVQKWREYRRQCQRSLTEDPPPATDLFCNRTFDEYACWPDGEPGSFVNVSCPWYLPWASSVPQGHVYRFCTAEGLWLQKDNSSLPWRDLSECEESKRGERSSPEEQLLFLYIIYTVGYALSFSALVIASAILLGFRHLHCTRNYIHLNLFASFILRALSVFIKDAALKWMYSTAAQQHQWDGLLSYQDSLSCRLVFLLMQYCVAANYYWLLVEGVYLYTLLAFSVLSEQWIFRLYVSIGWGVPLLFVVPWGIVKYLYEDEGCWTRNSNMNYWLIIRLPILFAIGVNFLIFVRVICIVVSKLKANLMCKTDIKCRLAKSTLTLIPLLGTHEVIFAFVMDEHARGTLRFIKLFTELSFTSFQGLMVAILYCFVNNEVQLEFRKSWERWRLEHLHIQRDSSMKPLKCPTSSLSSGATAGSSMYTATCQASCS

Row | Structure (SMILES) | Potency | activity change, negative = inhibition
1 | CC1(C)Cc2c(sc(/N=C/N3CCCCCC3)c2C#N)C(C)(C)N1 | inconclusive [inhibitor, partial curve, poor fit] | –
2 | CCN(CC)c1c([N+](=O)[O-])ncn1C | – | inactive: -0.433%
3 | O=C(c1ccc(Br)o1)N1CCN(C23CC4CC(CC(C4)C2)C3)CC1 | inconclusive [inhibitor, partial curve, poor fit] | –
4 | O=C(Nc1ccccc1C(=O)Nc1nnc(C(F)(F)F)s1)c1ccccc1 | inconclusive [inhibitor, full curve, poor fit] | –
5 | c1ccc(-n2nnnc2Oc2cccc3cccnc23)cc1 | – | inactive: -14.6%
6 | CCCCCCCNC(=O)C1(CC2CC(c3cccc(Br)c3)=NO2)CCN(C(=O)OC(C)(C)C)CC1 (stereo unspecified) | inconclusive [inhibitor, partial curve, poor fit] | –
7 | OC(c1cccc(Cl)c1)c1ncc(-c2cccc3ccccc23)[nH]1 (stereo unspecified) | inconclusive [inhibitor, single point] | –
8 | Cc1ccc(-c2noc(CNC(=O)c3ccc(C(C)(C)C)cc3)n2)cc1 | inconclusive [inhibitor, single point] | –
9 | Cc1csc(NC(=O)c2cc3ccccc3o2)n1 | inconclusive [inhibitor, partial curve, poor fit] | –
10 | CC(C)(C)Nc1c(-c2ccc(O)cc2)nc2ccc(Cl)cn12 | inconclusive [inhibitor, single point] | –
11 | CC(C)Oc1ccc(CCC(=O)NNC(=O)c2ccccc2C(=O)O)cc1 | inconclusive [inhibitor, single point] | –
12 | COc1ccc(C(CCNCc2ccc(OC(C)C)cc2)C(C)C)cc1 (stereo unspecified) | inconclusive [inhibitor, partial curve, poor fit] | –
13 | O=C(NCCO)C(=O)Nc1c2c(nn1-c1ccc(F)cc1)CSC2 | – | inactive: 1.13%
14 | Cc1ccc(S(=O)(=O)N2CCOCC2)cc1NC(=O)COC(=O)c1cccc(Cl)c1Cl | inconclusive [inhibitor, partial curve, poor fit] | –
15 | O=C(CSc1nnc(Cc2cccs2)n1-c1ccc(Cl)cc1)NCc1ccc2c(c1)OCO2 | inconclusive [inhibitor, partial curve, poor fit] | –
16 | CCN1CCN(C(c2cccnc2)c2c(NC(=O)c3ccco3)sc(C)c2C)CC1 (stereo unspecified) | inconclusive [inhibitor, single point] | –
17 | COC(=O)C1=C(C)N(Cc2ccccc2)C(=NCc2cc(OC)c(OC)c(OC)c2)N[C@H]1c1ccc(Br)cc1 | inconclusive [inhibitor, single point] | –
18 | NS(=O)(=O)c1ccc(NC(=O)Nc2ccc(C(F)(F)F)cc2)cc1 | active: 5.01 µM | –
19 | COc1ccc(CN2CCN(C(=O)c3ccco3)CC2)c(OC)c1OC | – | inactive: 15.7%
20 | COc1ccc(-c2cccc3c2C2CC3CCN2C(=O)OCc2ccccc2)cc1 (stereo unspecified) | active: 22.4 µM | –
21 | COCCCNC(=S)N1CCN(C(c2ccccc2)c2ccccc2)CC1 | active: 10 µM | –
22 | Cc1ccc(-c2c[n+](Cc3ccc(Cl)cc3)c3n2CCC3)cc1 | inconclusive [inhibitor, single point] | –

Row | Structure (SMILES) | Potency | activity change, negative = inhibition
23 | Cc1ccc(Cn2ccc(NC(=O)c3noc4c3CCCC4)n2)cc1 | – | inactive: 6.42%
24 | CCCCNC(=O)c1onc(CSc2nc3ccccc3[nH]2)c1C(=O)NCCCC | inconclusive [inhibitor, single point] | –
25 | COc1ccccc1CNS(=O)(=O)c1ccc(S(=O)(=O)NC2CC2)cc1 | – | inactive: -25.3%
26 | O=C(Nc1ccc2ccccc2c1)c1onc2c1CCCC2 | active: 8.91 µM | –
27 | Cc1nn2c(NCCCN(C)C)c3c(nc2c1-c1ccccc1)CCCC3 | inconclusive [inhibitor, full curve, poor fit] | –
28 | CC(C)CNC(=O)c1nc(-c2ccccc2)n(-c2ccccc2)n1 | active: 12.6 µM | –
29 | COc1cc(S(=O)(=O)Nc2cccc3cn[nH]c23)c(OC)cc1C | inconclusive [inhibitor, single point] | –
30 | OC1Cc2ccccc2C1Nc1cccc(C(F)(F)F)c1 (stereo unspecified) | inconclusive [inhibitor, single point] | –
31 | N#Cc1cn(CCOc2ccccc2F)c2ccccc12 | inconclusive [inhibitor, single point] | –
32 | Cc1ccc(S(=O)(=O)/N=C2/NC(=O)/C(=C\c3ccccc3)S2)cc1 | inconclusive [inhibitor, single point] | –
33 | COc1ccc(CN(C)C(=O)c2cc(-c3ccc(OC)c(OC)c3)nc3ccccc23)c(OC)c1 | inconclusive [inhibitor, single point] | –
34 | CCCCn1c(C23CC4CC(CC(C4)C2)C3)n[nH]c1=S | active: 7.08 µM | –
35 | Cc1ccccc1C1CCCN(Cc2nc(CC3CC3)no2)C1 (stereo unspecified) | inconclusive [inhibitor, partial curve, poor fit] | –
36 | NS(=O)(=O)c1ccc(S(=O)(=O)N2CCCC(c3ccccc3)C2)cc1 (stereo unspecified) | inconclusive [inhibitor, single point] | –
37 | Cn1c(=O)n(CC(=O)O)c(=O)c2c1nc1n2CCS1 | inactive | –
38 | CC(C)(C)NC[C@H](O)COc1nsnc1N1CCOCC1 | inactive | –
39 | Cc1ccc(S(=O)(=O)N2CCCC2CNC(=O)c2ccc(F)c(F)c2)cc1 (stereo unspecified) | inconclusive [inhibitor, partial curve, poor fit] | –
40 | CC(=O)c1c(C)[nH]c(C(=O)OCc2cccc(C)c2)c1C | inconclusive [inhibitor, single point] | –
41 | COc1ccc(-c2cc(-c3ccccc3)nc(SCC(=O)Nc3ncc(C)s3)c2C#N)cc1 | inconclusive [inhibitor, partial curve] | –
42 | COc1cc(OC)c(NC(=O)COCc2cc(-c3cccs3)on2)cc1Cl | – | inactive: -1.11%
43 | O=C(Nc1cccc(Cl)c1)Nc1cccc(C(=O)O)c1 | inconclusive [inhibitor, partial curve, poor fit] | –
44 | Cc1ccc(Cn2nnc3c(=O)[nH]c(C4CCN(S(=O)(=O)/C=C/c5ccccc5)CC4)nc32)cc1 | inconclusive [inhibitor, single point] | –

Row | Structure (SMILES) | Potency | activity change, negative = inhibition
45 | O=C(c1ccco1)N1CCN(Cc2cccc(C(F)(F)F)c2)CC1 | – | inactive: -16.9%
46 | CCOC(=O)c1nnn(-c2nonc2N)c1-c1ccc(Br)cc1 | inconclusive [inhibitor, single point] | –
47 | O=C(Nc1cccc(F)c1)C1CCCN(C(=O)c2ccc(Cl)cc2)C1 (stereo unspecified) | inconclusive [inhibitor, partial curve, poor fit] | –
48 | COc1ccc(CCNCc2c(C(=O)O)c(C)n(Cc3ccccc3C)c2C)c(OC)c1 | – | inactive: -0.628%
49 | Cc1ccc2c(c1)N(CC(=O)N1CCN(c3ccccc3)CC1)C(=O)C(C)O2 (stereo unspecified) | inconclusive [inhibitor, full curve, poor fit] | –
50 | O=C(Nc1ccccc1C(F)(F)F)c1ccc2nccnc2c1 | inconclusive [inhibitor, single point] | –
51 | COc1ccccc1CC(=O)NC12CC3CC(CC(C3)C1)C2 | inconclusive [inhibitor, partial curve, poor fit] | –
52 | COC(=O)Cc1ccc(N(Cc2ccccc2F)S(=O)(=O)c2ccc(Br)cc2)cc1 | inconclusive [inhibitor, single point] | –
53 | O=C(c1ccc(Cl)c(S(=O)(=O)N2CCOCC2)c1)N(Cc1ccco1)Cc1cccs1 | inconclusive [inhibitor, partial curve, poor fit] | –
54 | COc1ccc2cc3c(N)nn(C(=O)Cc4c[nH]c5ccccc45)c3nc2c1 | inconclusive [inhibitor, full curve, poor fit] | –
55 | O=C(Nc1cccc(Cl)c1)c1c(NC(=O)C(F)(F)F)sc2c1CCCC2 | inconclusive [inhibitor, full curve, poor fit] | –
56 | Cc1cccnc1NC(=O)/C=C/c1ccc2c(c1)OCO2 | inconclusive [inhibitor, single point] | –
57 | Cc1onc(-c2ccccc2)c1C(=O)N/N=C/c1cc2c(cc1Br)OCO2 | inconclusive [inhibitor, single point] | –
58 | CC(C)N1C/C(=C/c2ccsc2)C(=O)/C(=C/c2ccsc2)C1 | inconclusive [inhibitor, single point] | –
59 | CCNc1nc(SCCOc2ccccc2)nc(N(C)C)n1 | inconclusive [inhibitor, single point] | –
60 | COc1ccc2[nH]cc(C(O)CN3CCN(c4ccccc4F)CC3)c2c1 (stereo unspecified) | inconclusive [inhibitor, partial curve, poor fit] | –
61 | CCOc1ccccc1/C=C/c1onc(C)c1S(=O)(=O)N1CCC(C(=O)NC(C)(C)C)CC1 | inconclusive [inhibitor, partial curve, poor fit] | –
62 | CC1=Nc2ccccc2N=C(NC(=O)c2ccccc2)C1c1ccccc1 (stereo unspecified) | inconclusive [inhibitor, single point] | –
63 | O=P(Cc1cccc2ccccc12)(c1ccccc1)c1ccccc1 | inconclusive [inhibitor, partial curve, poor fit] | –
64 | Cc1ccc(Cl)cc1N1CCN(C(=O)CSc2nnc3n2C(C)(C)Cc2ccccc2-3)CC1 | active: 3.98 µM | –
65 | Cc1cccc2c(=O)n(C(=O)c3ccccc3)c(N)nc12 | – | inactive: -4.4%
66 | COc1ccc(Br)cc1/C=N/NC(=O)CN1CCN(Cc2ccccc2)CC1 | inconclusive [inhibitor, partial curve, poor fit] | –
